{"source": "PubChem BioAssay AID1030", "about": "(National Center for Advancing Translational Sciences (NCATS), 2008)", "note": "Among all 220,000 compounds or so, about 16,000 (7.3%) were called active. Inconclusive results, whose numbers are uncertain, are shown with a selection of clear calls. Calls follow the shape of the dose curve; as a rule, active = well fitted inhibition curve with a large enough effect (not every such curve was filed as active); inconclusive = small, poorly fitted or top-dose-only effect, or another doubt; inactive = no such curve, though single readings can be large or run the other way. Potencies of inconclusive entries are left out as doubtful fits. Potency is read from the fitted curve at half-maximal effect; tags tell the direction and shape of the fitted curve."}
{"biological_target": "Aldehyde dehydrogenase 1A1 (Homo sapiens) (UniProt P00352)", "sequence (P00352 whole entry, looked up)": "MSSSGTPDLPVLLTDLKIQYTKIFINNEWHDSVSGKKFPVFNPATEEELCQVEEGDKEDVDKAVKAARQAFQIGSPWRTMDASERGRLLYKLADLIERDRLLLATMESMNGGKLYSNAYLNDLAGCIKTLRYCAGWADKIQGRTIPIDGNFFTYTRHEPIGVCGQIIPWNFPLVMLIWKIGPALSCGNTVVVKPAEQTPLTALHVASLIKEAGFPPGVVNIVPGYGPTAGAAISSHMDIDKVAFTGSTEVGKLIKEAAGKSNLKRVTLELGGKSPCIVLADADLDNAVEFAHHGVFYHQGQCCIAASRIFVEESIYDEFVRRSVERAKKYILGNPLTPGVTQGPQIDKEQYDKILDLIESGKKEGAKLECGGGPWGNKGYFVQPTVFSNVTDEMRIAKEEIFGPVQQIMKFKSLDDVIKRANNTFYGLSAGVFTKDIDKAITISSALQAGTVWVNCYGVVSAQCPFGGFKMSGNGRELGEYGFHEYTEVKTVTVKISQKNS", "experiment": "qHTS Assay for Inhibitors of Aldehyde Dehydrogenase 1 (ALDH1A1);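 as to activity, negative = inhibition: plate controls were no enzyme wells and a reference inhibitor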", "settings": "Purified ALDH1A1, NADH fluorescence, propionaldehyde substrate; series mostly up to 75.3 µM; activity, negative = inhibition: at the top concentration"}
{"smiles": "CCOC(=O)c1c(NC(=O)Cn2nc(C(=O)O)c3ccccc3c2=O)sc(CC)c1C", "activity, negative = inhibition": "inactive: 1.51%"}
{"smiles": "O=C(Nc1cc(S(=O)(=O)N2CCOCC2)ccc1N1CCCC1)c1cnccn1", "activity, negative = inhibition": "inactive: 1.43%"}
{"smiles": "O=C1CCCS(=O)(=O)c2ccccc21", "activity, negative = inhibition": "inactive: 8.28%"}
{"smiles": "COC(=O)c1cccc(Cn2cc([N+](=O)[O-])cn2)c1", "activity, negative = inhibition": "inactive: 4.62%"}
{"smiles": "O=C(Nc1ccccc1Cl)C(Cl)C(=O)c1ccccc1", "note": "(stereo not drawn)", "Potency": "active: 1.78 µM"}
{"smiles": "c1cncc(-c2cccnc2)c1", "Potency": "inconclusive [inhibitor, single point]"}
{"smiles": "CCCOc1ccccc1-c1nc2c([nH]1)c(=O)[nH]c(=O)n2C", "Potency": "inconclusive [inhibitor, partial curve]"}
{"smiles": "COc1cccc(N(CC(=O)NCC2CCCO2)C(=O)CCC(=O)Nc2nccs2)c1", "note": "(stereo not drawn)", "activity, negative = inhibition": "inactive: -3.23%"}
{"smiles": "COc1ccc(C(=O)Nc2c(C)csc2C(=O)O)cc1", "Potency": "inconclusive [inhibitor, single point]"}
{"smiles": "Cc1ccccc1NC1=C(Cl)C(=O)N(C2CCCCC2)C1=O", "Potency": "inconclusive [inhibitor, full curve]"}
{"smiles": "Fc1ccccc1-c1nc(NCc2ccco2)c2ccccc2n1", "Potency": "inconclusive [inhibitor, single point]"}
{"smiles": "CCOc1cc(/C=C2\\C(=O)N(c3cccc(C(F)(F)F)c3)C(=O)c3ccccc32)ccc1O", "Potency": "inconclusive [inhibitor, single point]"}
{"smiles": "COCCCNC(=O)c1ccccc1SC", "activity, negative = inhibition": "inactive: 2.32%"}
{"smiles": "O=C(O)[C@H]1O[C@H]1C(=O)O", "activity, negative = inhibition": "inactive: 8.17% [at 13.5 µM]"}
{"smiles": "CCOC(=O)N1CCN(c2c(N3CCOCC3)c(=O)c2=O)CC1", "Potency": "inconclusive [inhibitor, single point]"}
{"smiles": "Cc1cccc(C)c1OCC(O)CN1CCN(c2ccccn2)CC1", "note": "(stereo not drawn)", "activity, negative = inhibition": "inactive: 6.62%"}
{"smiles": "Cc1nn(-c2ccccc2)c2c1C(c1ccc(F)cc1)C(C#N)=C(N)O2", "note": "(stereo not drawn)", "Potency": "active: 3.55 µM"}
{"smiles": "CC1CCCN(C(=O)C2CCN(S(=O)(=O)c3cccc4cccnc34)CC2)C1", "note": "(stereo not drawn)", "Potency": "inconclusive [inhibitor, partial curve, poor fit]"}
{"smiles": "Cc1cc([N+](=O)[O-])c(C)cc1-c1ccc(/C=N/NC(=O)Cn2nnnc2N)o1", "Potency": "active: 15 µM"}
{"smiles": "CN(CC(=O)Nc1sccc1C#N)C1CCCCC1", "Potency": "inconclusive [inhibitor, partial curve]"}
{"smiles": "Cc1cccc(C)c1OCC(=O)Nc1ncn[nH]1", "activity, negative = inhibition": "inactive: -5.83%"}
{"smiles": "COC(=O)c1cc2ccsc2n1CC(=O)Nc1cc(Cl)ccc1OC", "Potency": "inconclusive [inhibitor, full curve]"}
{"smiles": "COc1ccc(OCc2nnc(SC3CCOC3=O)n2-c2ccccc2)cc1", "note": "(stereo not drawn)", "activity, negative = inhibition": "inactive: 7.9%"}
